# PubChem BioAssay AID686979 (National Center for Advancing Translational Sciences (NCATS), 2013)
# The campaign covered roughly 420,000 compounds. About 50,000 (12%) were called active. Inconclusive results, whose numbers are uncertain, are shown with a selection of clear calls. The call rests on the fitted dose curve; in most records, active means well fitted inhibition curve with a large enough effect; inconclusive means small, poorly fitted or top-dose-only effect; inactive means flat fitted curve, though single readings scatter. Potencies of inconclusive entries are left out as doubtful fits.
# Assay: qHTS for Inhibitors of human tyrosyl-DNA phosphodiesterase 1 (TDP1): qHTS in cells in presence of CPT; further: nearly all actives have a fitted effect of over 55% in size
# Conditions: chicken DT40 Tdp1-/-;hTDP1 cells + 20 nM CPT, ATP luminescence, 48 h; activity change, negative = growth inhibition: at 46.2 µM (top of the series) unless noted
# How it was run: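 Cell growth measured by CellTiter-Glo luminescence after a minimum 48 h, 37 C compound exposure with 20 nM CPT in Tdp1-knockout DT40 cells stably expressing hTDP1, seeded 400/well; qHTS titration format.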
# On the % scale 0 is the no-effect control and ±100 the full control effect; potency means the concentration at half of the fitted maximal effect; tags describe the fitted curve by direction and shape.
Structure (SMILES),"activity change, negative = growth inhibition",Potency
CN(C)c1ccc2c(c1)N=C(c1ccco1)OP2(=S)N1CCOCC1 (stereo unspecified),inactive: -16.3%,–
CC(C)COC(=O)n1c(=O)oc2cc(S(=O)(=O)N3CCCCC3)ccc21,–,"inconclusive [inhibitor, single point]"
Cn1c(O)c(C=Nc2ccccc2-c2ccccc2)c(=O)n(C)c1=O,inactive: 2.35%,–
CC[C@@]1(O)CC(O)c2c(cc3c(c2O)C(=O)c2c(O)ccc(O)c2C3=O)C1C(=O)OC (stereo partly specified),inactive: -20%,–
COc1cc(-n2c(=S)[nH]c3ccc(C)cc3c2=O)c(Cl)cc1Cl,–,active: 8.2 µM
COc1ccc(-c2cc(-c3ccccc3)[n+](C)c(-c3ccccc3)c2)cc1,–,active: 1.03 µM
CCn1c(C)nc2cc(S(=O)(=O)Nc3ccc(C)cc3)ccc21,–,"inconclusive [inhibitor, partial curve]"
CC1=C(C(=O)OCCN(Cc2ccccc2)c2ccccc2)C(c2cccc([N+](=O)[O-])c2)C(P2(=O)OCC(C)(C)CO2)=C(C)N1 (stereo unspecified),–,"inconclusive [inhibitor, single point]"
CS(=O)(=O)c1ccc(C2=C(CNC(=O)c3nccs3)[C@H]3CC[C@@H](C2)N3Cc2ccccc2)cc1,inactive: -2.8%,–
CCCCC1C(=O)NC(=S)N(C)C1=O (stereo unspecified),inactive: 3.64%,–
Cn1c(O)c(C=NCCCN2CCCC2=O)c(=O)n(C)c1=O,inactive: -16%,–
O=C(c1ccc(CNS(=O)(=O)c2ccc(Br)cc2)cc1)N1CCC2(CC1)OCCO2,–,"inconclusive [inhibitor, partial curve, poor fit]"
COc1ccccc1CCNC1CCC(C)CC1 (stereo unspecified),inactive: -25.2%,–
CCCCCCCCCC(=O)O[C@H]1CC[C@H]2[C@@H]3CCC4=CC(=O)CC[C@@H]4[C@H]3CC[C@]12C,inactive: 18.9%,–
O=[N+]([O-])c1cccc(CN2CCN(Cc3ccc(Cl)cc3)CC2)c1,–,"inconclusive [inhibitor, single point]"
CC1c2ccccc2-n2nncc2CN1CC1CCCCC1 (stereo unspecified),–,"inconclusive [inhibitor, single point]"
Cc1ccc(Cn2cc(C=O)c3ccccc32)cc1,–,"inconclusive [inhibitor, single point]"
Cn1c(=O)oc(=O)c2ccccc21,inactive: 5.9%,–
CC(=O)O[C@H]1CC[C@@]2(C)C(=CC[C@@H]3[C@@H]2CC[C@]2(C)C(=O)CC[C@@H]32)C1,–,"inconclusive [inhibitor, single point]"
CCOC(=O)[C@]12Cc3cc(OC)ccc3[C@H]1N(C(C)C)C(=O)c1cc(OC)ccc12,–,active: 20.6 µM
Cc1cc(OCC(=O)NCC(O)c2ccccc2)c2c3c(c(=O)oc2c1)CCCC3 (stereo unspecified),–,"inconclusive [inhibitor, single point]"
O=C(NC(=S)N1C[C@H]2C[C@H](C1)c1cccc(=O)n1C2)c1ccc(F)cc1,inactive: 5.87%,–
COc1cc(CN2CCN(C(=O)Cc3ccccc3)CC2)cc(OC)c1OC,inactive: 1.24%,–
Cn1c(O)c(C(=Nc2ccccc2)SCc2ccc(Cl)cc2)c(=O)n(C)c1=O,–,active: 4.61 µM
CCc1nc2ccccc2c(=O)n1-c1ccc2ccccc2c1,–,"inconclusive [inhibitor, single point]"
CC1CCN(C(CC(=O)c2ccccc2)C(=O)c2ccccc2)CC1 (stereo unspecified),–,active: 2.59 µM

Structure (SMILES),"activity change, negative = growth inhibition",Potency
Cc1csc(NC(=O)C(Cl)c2ccccc2)n1 (stereo unspecified) (tested in a mixture with another compound),–,"inconclusive [inhibitor, single point]"
CC1=CC(=O)NP(=O)(Oc2ccc3ccccc3c2)N1 (stereo unspecified),–,active: 9.2 µM
O=C(CN1CCOCC1)c1ccc(Br)cc1,inactive: -1.9%,–
CNC(=O)Oc1ccc(-c2cn3cc(Cl)ccc3n2)cc1,–,active: 20.6 µM
COc1ccc(NC(=O)N2C[C@@H]3C[C@@H](C2)c2cccc(=O)n2C3)c(OC)c1,inactive: 5.1%,–
CCCCCn1c(=O)c(C(=O)NCc2ccccc2)c(O)c2ccccc21,–,active: 4.61 µM
COc1ccc(CN2CCN(C(=O)Cc3ccccc3)CC2)cc1Br,inactive: -18.6%,–
O=C1NC(=O)C(=Cc2ccsc2)C(=O)N1,inactive: 4.59%,–
COC1CCC(OC2CC(C3(C)CCC4(CC(O)C(C)C(C(C)/C=C(\C)C(=O)C(C)CC(C)C(=O)O)O4)O3)OC3(OC(C4OC(O)(CO)C(C)CC4C)CC3C)C2C)OC1C (stereo unspecified),–,active: 0.146 µM
O=c1[nH]c2ccccc2n1C1CCN(C(c2cc3ccccc3o2)c2nnnn2Cc2ccccc2)CC1 (stereo unspecified),–,active: 10.3 µM
C=COCCn1c(C)c(C(C)=O)c2cc(O)ccc21,–,"inconclusive [inhibitor, single point]"
CCCc1c(C)nc(-c2ccc(C)cc2)nc1OC(=O)N(C)C,inactive: 15.3%,–
C[C@H]1COC(=O)[C@@H](Cc2ccc(F)cc2)CC/C=C/C[C@H](CC(=O)N(CCO)Cc2ccccc2)C(=O)N1,–,active: 16.4 µM
Cc1c(C(=O)N2CCC3(CC2)OCCO3)sc2ncnc(N3CCc4ccccc4C3)c12,–,active: 16.4 µM
CCCCn1c(N)c(C(=O)NCCN2CCOCC2)c2nc3ccccc3nc21,–,active: 14.6 µM
C[C@@H]1O[C@@H](O[C@H]2CC[C@]3(C=O)C4CC[C@]5(C)[C@@H](C6=CC(=O)OC6)CC[C@]5(O)[C@@H]4CC[C@]3(O)C2)[C@H](O)[C@H](O)[C@H]1O (stereo partly specified),–,active: 0.366 µM
Cc1cccc(-n2c(/C=C\c3cccc(Br)c3)nc3ccccc3c2=O)c1,–,"inconclusive [inhibitor, partial curve]"
CCCN1CCC(NC2CCC(O)CC2)CC1 (stereo unspecified),inactive: 4.61%,–
Cc1ccc(S(=O)(=O)N2CCN(C(=O)COC(=O)Cc3ccccc3)CC2)c(C)c1,inactive: -19.5%,–
O=c1[nH]c(=O)n(CCc2ccccc2)c(O)c1C=NCCCn1ccnc1,inactive: 0.62%,–
CC(Cc1ccccc1)[n+]1cc(/N=C(\N)[O-])on1 (stereo unspecified),inactive: -14.1%,–
Cc1c(C=O)c2ccccc2n1Cc1ccccc1,inactive: -4.92%,–
CNC(C(=O)c1ccccc1)C(OC)c1cccc([N+](=O)[O-])c1 (stereo unspecified),inactive: -4.08%,–
N#CC(C#N)=Cc1cc(O)c(O)c(O)c1,–,active: 9.44 µM
Cn1cccc1/C=C1/C(=O)NC(=O)N(Cc2ccc(F)cc2)C1=O,–,active: 11.6 µM
